Hit rate of the full screen: of about 420,000 compounds, about 64,000 (15%) were called active. The inconclusive results got no clear call from the source; some entries with a clear call stand among them for comparison. Calls come from the whole dose curve; as a rule, active = well fitted inhibition curve with a large enough effect; inconclusive = small, poorly fitted or top-dose-only effect; inactive = flat fitted curve, though single readings scatter. No potency is given beside an inconclusive call; the fits are too rough. Peptide text beside a SMILES is read from it. * marks the point of attachment. Boc = CC(C)(C)OC(=O)*
Test: qHTS for Inhibitors of human tyrosyl-DNA phosphodiesterase 1 (TDP1): qHTS in cells in absence of CPT; note: nearly all actives have a fitted effect of over 55% in size
Details: DT40 Tdp1-/- hTDP1 cells, no CPT, ATP luminescence, 48 h; activity change, negative = growth inhibition: at 46.2 µM (top of the series) unless noted
Outline: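 Readout: luminescence from CellTiter-Glo after 30 min in the dark at RT. Cells: DT40 Tdp1-/- with stable hTDP1, 400/well. Exposure: compounds alone, ≥48 hr, 37 °C.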
% is set by controls: 0 for no effect and ±100 for the full control effect; potency is the fitted concentration of half-maximal effect; tags give direction and shape of the fitted curve.

Row | Structure (SMILES) | Potency | activity change, negative = growth inhibition
1 | COc1ccccc1NC(=S)NCc1ccc(S(N)(=O)=O)cc1 | inactive | 
2 | Cc1nc2ccc(NC(=O)c3ccc(C)c(S(=O)(=O)N4CCOCC4)c3)cc2s1 | inconclusive [inhibitor, single point] | 
3 | Cc1ccc(C2(CCNCc3ccco3)CCOC(C(C)C)C2)cc1 (configuration not stated) | inconclusive [inhibitor, single point] | 
4 | COC(=O)c1ccc(NC(=O)c2cn(-c3ccccc3)nc2-c2ccncc2)cc1 | inconclusive [inhibitor, single point] | 
5 | CC(C)C[C@@H](CNC(=O)OC(C)(C)C)NC(=O)c1nc[nH]c1C(=O)N[C@@H](CC(C)C)C(=O)CNC[C@H](CC(C)C)NC(=O)c1nc[nH]c1C(=O)N[C@@H](Cc1c[nH]c2ccccc12)C(=O)OC(C)(C)C | active: 18.4 µM | 
6 | COc1cc(C(=O)NCC(=O)N/N=C/c2c(C)[nH]c3ccccc23)cc(OC)c1OC | active: 25.9 µM | 
7 | COc1ccc(OC)c(-c2nn(-c3ccccc3)cc2C(=O)N2CCc3ccccc3C2)c1 | inconclusive [inhibitor, single point] | 
8 | Cc1cccc(NC(=O)N2CCC(n3c(C)nc4cccnc43)CC2)c1 | inconclusive [inhibitor, single point] | 
9 | CCOC(=O)/C(C#N)=N/Nc1c(C)n(C)n(-c2ccccc2)c1=O | active: 16.4 µM | 
10 | COc1ccc(CCNC(=O)CCn2c(=O)c3cccn3c3cccnc32)c(OC)c1OC | inconclusive [inhibitor, partial curve] | 
11 | CCOC(=O)C(Cc1ccc(O)cc1)NC(=O)CNC(=O)C1CCCN1C(=O)OC(C)(C)C (stereo not drawn) (Boc-Pro-Gly-Tyr-OEt; configuration not given here) |  | inconclusive: -36.5% [inhibitor]
12 | CCc1cc(=O)oc2cc(C)cc(OC(C)C(=O)NCCCN3CCOCC3)c12 (configuration not stated) | inactive | 
13 | COCCNCCCOc1ccc(C(C)(C)c2ccccc2)cc1 | inconclusive [inhibitor, single point] | 
14 | COc1cccc(NC(=O)c2nn(C34CC5CC(CC(C5)C3)C4)cc2[N+](=O)[O-])c1 | inconclusive [inhibitor, single point] | 
15 | COc1ccccc1Nc1nc(NCc2ccco2)c2ccccc2n1 | active: 20.6 µM | 
16 | CCC(C)(C)NC(=O)Cn1c(=O)ccc2cc(S(=O)(=O)N3CCC(C)CC3)ccc21 | inconclusive [inhibitor, single point] | 
17 | COc1cc(-c2cc(NC=O)c3ncc(-c4ccc(F)cc4)n3c2)cc(OC)c1OC | inconclusive [inhibitor, single point] | 

From PubChem BioAssay AID686978 (National Center for Advancing Translational Sciences (NCATS), 2013)
